# The supplement of paper PMC10369915
# Some of the results follow. Rule as the data show it: active = 3.2 or more and inactive = the rest. Only a few entries rise above the background.
# Legend:
# Assay in all cases: enrichment score (SH2-bound / input frequency) (ratio); bacterial display of known human phosphotyrosine sites (pTyr-Var adds point mutants) read by sequencing; higher = stronger binding; tyrosines were phosphorylated by kinases first
# Conditions in all cases: peptide library: pTyr-Var
# SHP2 C-SH2 domain E139D = target: SHP2 C-SH2 domain E139D
# [1] = target: SHP2 C-SH2 domain wild-type
# SHP2 N-SH2 domain L43F = target: SHP2 N-SH2 domain L43F
# SHP2 N-SH2 domain T42A = target: SHP2 N-SH2 domain T42A
# SHP2 N-SH2 domain T52S = target: SHP2 N-SH2 domain T52S
# [2] = target: SHP2 N-SH2 domain wild-type
# 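Also: displayed peptides selected on beads carrying the immobilized SH2 domain, with library peptides lacking any tyrosine serving as negative controls.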
Binder,enrichment score (SHP2 C-SH2 domain E139D),enrichment score [1],enrichment score (SHP2 N-SH2 domain L43F),enrichment score (SHP2 N-SH2 domain T42A),enrichment score (SHP2 N-SH2 domain T52S),enrichment score [2]
VSLEAYCKHKY [RXRA_Y403_A398V],inactive: 1.26,inactive: 0.761,inactive: 0.879,inactive: 0.515,inactive: 0.422,inactive: 0.664
AIMSFYATLID [RYR1_Y2426_A2428T],inactive: 1.46,inactive: 1.26,inactive: 1.11,inactive: 1.34,inactive: 1.19,inactive: 1.16
QRRLVYFEGGA [RYR1_Y245_YF],inactive: 0.87,inactive: 0.837,inactive: 0.93,inactive: 0.769,inactive: 0.947,inactive: 0.872
FFHKFYNKSED [RYR1_Y4864_R4861H],inactive: 0.956,inactive: 0.826,inactive: 0.892,inactive: 0.634,inactive: 0.914,inactive: 0.917
QKMLDYLKEKK [RYR2_Y3780],inactive: 1.25,inactive: 0.934,inactive: 1.05,inactive: 1.04,inactive: 1.34,inactive: 1.13
QKMFDYLKEKK [RYR2_Y3780_L3778F],inactive: 1.24,inactive: 1.26,inactive: 1.05,inactive: 1.32,inactive: 1.32,inactive: 1.61
IIAVHYVLEES [RYR2_Y4559],inactive: 2.71,inactive: 2.08,active: 4.07,inactive: 1.96,active: 3.76,inactive: 2.47
DDLEVYLKHPL [SACS_Y3477_L3481P],inactive: 1.32,inactive: 1.13,inactive: 1.35,inactive: 0.942,inactive: 1.31,inactive: 1.31
IIRRLYLKWHP [SACS_Y4333],inactive: 0.56,inactive: 0.359,inactive: 0.405,inactive: 0.361,inactive: 0.391,inactive: 0.456
LGSNTYPFLLM [SAG_Y120_T125M],inactive: 0.719,inactive: 1.32,inactive: 1.27,inactive: 0.999,inactive: 1.18,inactive: 0.818
LMFPDYLPCSV [SAG_Y129_T125M],inactive: 1.08,inactive: 1.09,inactive: 0.895,inactive: 0.993,inactive: 0.794,inactive: 1.12
FQRLRYIKQLG [SAMHD1_Y146],inactive: 0.603,inactive: 0.907,inactive: 0.488,inactive: 0.428,inactive: 0.703,inactive: 0.824
FQHLRYIKQLG [SAMHD1_Y146_R143H],inactive: 0.883,inactive: 0.897,inactive: 0.726,inactive: 0.771,inactive: 0.761,inactive: 1.12
FQRLQYIKQLG [SAMHD1_Y146_R145Q],inactive: 0.663,inactive: 0.731,inactive: 0.71,inactive: 0.561,inactive: 0.695,inactive: 0.918
TVSTRYTQPQP [SARG_Y259],inactive: 0.919,inactive: 0.772,inactive: 0.836,inactive: 0.766,inactive: 0.844,inactive: 0.972
TVSTGYTQPQP [SARG_Y259_R258G],inactive: 0.58,inactive: 0.601,inactive: 0.838,inactive: 0.612,inactive: 0.563,inactive: 0.619
YARECYSALPQ [SARS2_Y52_G51C],inactive: 0.614,inactive: 0.798,inactive: 0.77,inactive: 0.644,inactive: 0.605,inactive: 0.79
FARECYSALPQ [SARS2_Y52_G51C_YF],inactive: 0.737,inactive: 0.828,inactive: 0.626,inactive: 0.638,inactive: 0.637,inactive: 0.884
AVDDKYSRREE [SART1_Y685_I681V],inactive: 0.531,inactive: 0.646,inactive: 0.813,inactive: 0.578,inactive: 0.544,inactive: 0.686

Binder,enrichment score (SHP2 C-SH2 domain E139D),enrichment score [1],enrichment score (SHP2 N-SH2 domain L43F),enrichment score (SHP2 N-SH2 domain T42A),enrichment score (SHP2 N-SH2 domain T52S),enrichment score [2]
QCTSDYPEHVC [SART3_Y541],inactive: 0.894,inactive: 0.63,inactive: 0.533,inactive: 0.608,inactive: 0.543,inactive: 0.656
QCTSHYPEHVC [SART3_Y541_D540H],inactive: 1.36,inactive: 1.2,inactive: 1.24,inactive: 1.15,inactive: 1.27,inactive: 1.11
DEEPPHRGPFC [SASH1_Y551_Y551H],inactive: 0.605,inactive: 0.473,inactive: 0.584,inactive: 0.529,inactive: 0.465,inactive: 0.479
HVPEEYKPKQG [SAXO2_Y37],inactive: 0.774,inactive: 0.674,inactive: 0.839,inactive: 0.463,inactive: 0.5,inactive: 0.627
HVLEEYKPKQG [SAXO2_Y37_P34L],inactive: 0.723,inactive: 0.824,inactive: 0.835,inactive: 0.797,inactive: 0.579,inactive: 0.758
RPSRQYATRDV [SCAMP3_Y35_L38R],inactive: 0.211,inactive: 0.297,inactive: 0.337,inactive: 0.211,inactive: 0.23,inactive: 0.345
ATLDVYNPFET [SCAMP3_Y41],inactive: 0.769,inactive: 0.722,inactive: 0.793,inactive: 0.724,inactive: 0.964,inactive: 0.985
ATRDVYNPFET [SCAMP3_Y41_L38R],inactive: 0.842,inactive: 0.826,inactive: 0.863,inactive: 0.835,inactive: 0.681,inactive: 0.664
GSESDYIIMPN [SCARB1_Y133_V135I],inactive: 0.477,inactive: 0.429,inactive: 0.699,inactive: 0.585,inactive: 0.557,inactive: 0.545
ESTPLYPMLFG [SCLY_Y280_F276S],inactive: 1.02,inactive: 0.985,inactive: 0.923,inactive: 0.857,inactive: 0.887,inactive: 1.11
LVMFIYAIFGM [SCN1A_Y1684],inactive: 3.16,inactive: 2.53,inactive: 2.32,inactive: 2.42,inactive: 2.72,inactive: 2.25
LVMFIYDIFGM [SCN1A_Y1684_A1685D],active: 3.96,active: 3.99,inactive: 3.06,inactive: 2.88,active: 3.7,inactive: 3.19
LVMFIYAISGM [SCN1A_Y1684_F1687S],inactive: 3.02,active: 3.71,active: 3.77,active: 3.39,active: 3.25,inactive: 2.76
LVMFTYAIFGM [SCN1A_Y1684_I1683T],inactive: 1.7,inactive: 1.88,inactive: 1.62,inactive: 1.44,inactive: 1.83,inactive: 1.67
LVMFISAIFGM [SCN1A_Y1684_Y1684S],inactive: 2.34,inactive: 2,inactive: 2.12,inactive: 1.69,inactive: 2.38,inactive: 2.44
MSNSAYVKREV [SCN1A_Y1694_F1692S],inactive: 0.669,inactive: 0.667,inactive: 0.657,inactive: 0.571,inactive: 0.59,inactive: 0.77
IIQRAYRRHLL [SCN1A_Y1926],inactive: 0.334,inactive: 0.24,inactive: 0.244,inactive: 0.23,inactive: 0.355,inactive: 0.373
NKVFTYIFIME [SCN4A_Y1074_D1069N],inactive: 1.37,inactive: 2.15,inactive: 1.76,inactive: 1.47,inactive: 1.28,inactive: 1.74
